The campaign covered roughly 220,000 compounds. About 5,700 (2.6%) were called active. Inconclusive results, whose numbers are uncertain, are shown with a selection of clear calls. Calls follow the shape of the dose curve; as a rule, active = well fitted inhibition curve with a large enough effect; inconclusive = small, poorly fitted or top-dose-only effect; inactive = no such curve, though single readings can be large or run the other way. Where the call is inconclusive, the potency comes from a doubtful curve fit.
target: Lysine-specific demethylase 5B (Homo sapiens) (UniProt Q9UGL1); experiment: Primary screen for KDM5B Histone Demethylases FDH-coupled qHTS; conditions: FDH-coupled NADH fluorescence (FDH is formaldehyde dehydrogenase); activity change, negative = inhibition: at 57.7 µM (top of the series) unless noted; also: nearly all actives have a fitted effect of over 70% in size; as to activity change, negative = inhibition: 0% is about no effect
Chain of UniProt Q9UGL1 (Q9UGL1 whole entry, looked up): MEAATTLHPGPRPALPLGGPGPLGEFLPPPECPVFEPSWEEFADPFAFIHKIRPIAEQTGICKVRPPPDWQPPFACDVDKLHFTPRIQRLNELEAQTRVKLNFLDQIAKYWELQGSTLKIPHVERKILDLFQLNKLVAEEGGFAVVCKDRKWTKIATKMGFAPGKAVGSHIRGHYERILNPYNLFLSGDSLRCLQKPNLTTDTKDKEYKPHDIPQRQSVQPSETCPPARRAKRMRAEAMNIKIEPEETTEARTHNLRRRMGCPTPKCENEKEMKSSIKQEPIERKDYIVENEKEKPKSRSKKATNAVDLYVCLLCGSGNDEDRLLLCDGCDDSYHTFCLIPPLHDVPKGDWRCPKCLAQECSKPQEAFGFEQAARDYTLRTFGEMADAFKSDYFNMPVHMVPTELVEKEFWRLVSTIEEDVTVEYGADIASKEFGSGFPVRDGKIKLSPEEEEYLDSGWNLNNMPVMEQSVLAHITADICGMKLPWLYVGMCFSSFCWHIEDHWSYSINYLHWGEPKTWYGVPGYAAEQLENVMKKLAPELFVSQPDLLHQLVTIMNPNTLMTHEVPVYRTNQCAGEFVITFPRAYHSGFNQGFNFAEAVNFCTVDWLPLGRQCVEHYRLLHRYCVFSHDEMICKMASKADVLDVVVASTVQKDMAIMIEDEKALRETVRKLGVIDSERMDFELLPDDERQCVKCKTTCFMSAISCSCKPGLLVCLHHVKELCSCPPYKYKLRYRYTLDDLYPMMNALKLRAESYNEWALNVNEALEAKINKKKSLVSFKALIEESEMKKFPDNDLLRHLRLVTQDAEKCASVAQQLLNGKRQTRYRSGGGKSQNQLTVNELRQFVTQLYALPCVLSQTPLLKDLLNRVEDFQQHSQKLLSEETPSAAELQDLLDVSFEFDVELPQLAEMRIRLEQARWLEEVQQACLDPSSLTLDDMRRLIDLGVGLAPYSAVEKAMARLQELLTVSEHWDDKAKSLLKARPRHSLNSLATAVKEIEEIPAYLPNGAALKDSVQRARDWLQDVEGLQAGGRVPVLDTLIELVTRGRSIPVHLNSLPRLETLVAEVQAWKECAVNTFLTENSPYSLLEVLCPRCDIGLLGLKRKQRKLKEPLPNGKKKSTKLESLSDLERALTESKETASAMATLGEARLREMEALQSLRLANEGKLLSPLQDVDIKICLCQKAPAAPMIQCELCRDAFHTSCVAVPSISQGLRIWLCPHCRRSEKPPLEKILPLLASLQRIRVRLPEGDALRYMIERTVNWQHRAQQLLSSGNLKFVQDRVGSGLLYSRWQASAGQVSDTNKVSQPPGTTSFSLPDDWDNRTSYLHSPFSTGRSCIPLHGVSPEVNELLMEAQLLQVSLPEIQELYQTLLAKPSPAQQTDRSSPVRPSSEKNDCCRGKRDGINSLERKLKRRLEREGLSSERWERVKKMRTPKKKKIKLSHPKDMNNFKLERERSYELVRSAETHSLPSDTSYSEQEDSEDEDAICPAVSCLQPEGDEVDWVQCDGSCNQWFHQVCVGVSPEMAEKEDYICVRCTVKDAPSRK
Method in brief: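 Here, H3K4me3 peptide (12.5 µM in substrate mix) is demethylated by KDM5BΔAP, 200 nM final, after 10 min compound exposure. Formaldehyde product is coupled through FDH (0.25 U/mL in mix) to NADH fluorescence; 30-min ΔRFU feeds dose-response curves.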
Potency is read from the fitted curve at half-maximal effect; tags tell the direction and shape of the fitted curve.

SMILES | Potency | activity change, negative = inhibition
CCOC(=O)c1scc(-c2ccc(C)cc2)c1S(=O)(=O)Nc1cc(OC)ccc1OC | inconclusive: 3.16 µM [inhibitor, full curve, poor fit] | –
COc1cccc(/C(O)=C2\C(=O)C(=O)N(c3ccccn3)C2c2cccc(Br)c2)c1 (stereo not given) | inactive | –
Nc1c(C(=O)Nc2ccccc2)sc2nc3c(cc12)CN(Cc1ccccc1)CC3 | inconclusive: 15.8 µM [inhibitor, partial curve, poor fit] | –
CC(=O)Nc1ccc(CN2C[C@H](O)C[C@H]2c2nc(-c3cccc([N+](=O)[O-])c3)no2)cc1 | inconclusive: 31.6 µM [inhibitor, partial curve, poor fit] | –
COc1ccccc1NC(=O)CSc1nc(N2CCOCC2)c2c(c1C#N)CCCC2 | inactive | –
O=C(Nc1ccc(I)cc1C(F)(F)F)c1cc(Cl)ccc1Cl | inactive | –
CC(C)C(=O)N1Cc2ccccc2CC2(CCN(CC3CCNC3)CC2)C1 (stereo not given) | inactive | –
O=C(NCCc1ccc(Cl)cc1)C1CCCN1c1nc2ncccc2o1 (stereo not given) | inactive | –
O=C(O)CC1(CC(=O)N2CCN3C(=O)c4cc(-c5ccsc5)ccc4NC(=O)[C@H]3C2)CCCC1 | inconclusive: 25.1 µM [inhibitor, single point] | –
CN1CCCN(C(=O)c2cc3cc(Br)ccc3oc2=O)CC1 | inactive | –
CC(=O)C1=C(O)C(=O)N(c2ccc(Br)cn2)C1c1ccccc1[N+](=O)[O-] (stereo not given) | inconclusive: 22.4 µM [inhibitor, single point] | –
O=C(c1ccc2c(c1)OCO2)N1CC2(C1)C(=O)Nc1ccccc12 | inactive | –
O=C(CN1C(=O)CNC1=O)N1CCN(Cc2ccccc2)CC(O)C1 (stereo not given) | inconclusive: 2 µM [inhibitor, partial curve, poor fit] | –
O=C(c1ccccc1OC1CCN(Cc2ccccn2)CC1)N1CCCC(O)C1 (stereo not given) | inconclusive: 6.31 µM [inhibitor, partial curve, poor fit] | –
COc1ccccc1Nc1ncnc2scc(-c3ccc(F)cc3)c12 | inconclusive: 35.5 µM [inhibitor, partial curve, poor fit] | –
N#Cc1ccc(N2CCC(C(=O)NC(c3ccc(F)cc3)C3CCCC3)CC2)nc1 (stereo not given) | inactive | –
COc1cc(C(F)(F)F)nc2c(Br)c(C(C)(C)C)nn12 | inconclusive: 22.4 µM [inhibitor, single point] | –
O=C(CCC(=O)c1ccc(Cl)cc1)OC1CCCCC1=O (stereo not given) | inactive | –
C/C=C/CN1C[C@@H](NC(=O)c2cccc(N(C)C)c2)C[C@H]1C(=O)NCC | inconclusive: 20 µM [inhibitor, partial curve] | –
O=C(NC1CCCC1)C(=O)N1CCN(C(=O)c2cc3ccccc3[nH]2)CC1 | inactive | –
Cc1ccc(CN(C)C(=O)NCc2coc(-c3cccs3)n2)cc1 | inconclusive: 28.2 µM [inhibitor, partial curve, poor fit] | –
Cc1cc(C(=O)NCc2ccccc2)c2c(C)nn(-c3cccc(F)c3)c2n1 | inconclusive: 31.6 µM [inhibitor, partial curve, poor fit] | –
COc1ccc(NC(=O)CC2Nc3ccccc3NC2=O)cc1 (stereo not given) | inconclusive: 31.6 µM [inhibitor, single point] | –

SMILES | Potency | activity change, negative = inhibition
Cc1ccc(CCC2CCN(C(=O)c3cccc(C#N)c3)CC2)cc1 | inactive | –
CC(=O)c1ccc(NC(=O)N2C[C@@H]3C[C@H](C2)c2ccc(NC(=O)CN(C)C)c(=O)n2C3)cc1 | inactive | –
C=CCN1[C@H](CC(C)C)COc2cccc(N3CCCC3)c2S1(=O)=O | inconclusive: 22.4 µM [inhibitor, partial curve, poor fit] | –
O=C(NCC1CCCO1)c1ccc(-c2ccc(N3CCSCC3)nc2)cc1 (stereo not given) | inconclusive: 3.16 µM [inhibitor, partial curve, poor fit] | –
CCc1cccc(C)c1NC(=O)COC(=O)c1cc(C)nc2ccccc12 | inactive | –
COc1ccc(-n2c(SCC(=O)NCc3ccccc3)nc3c([nH]c4ccccc43)c2=O)cc1 | inconclusive: 25.1 µM [inhibitor, partial curve, poor fit] | –
O=C1NCCCCCCN(Cc2cccc(OC(F)(F)F)c2)[C@H]2CCC[C@@H]12 | active: 5.62 µM | –
Cn1c(SCc2ccc(Cl)c3cccnc23)nnc1C(F)(F)F | inactive | –
Cc1ccc(CN2CCCn3nc(C)c(-c4ccccc4-c4ccccc4)c32)o1 | active: 35.5 µM | –
C[S+](=O)([O-])c1ccc(-c2nc(C(=O)NCCc3ccc(Cl)cc3)n3ccncc23)cc1 | active: 79.4 µM | –
Cn1nccc1C(=O)N1CCc2nn(Cc3ccccc3)c(=O)n2CC1 | inactive | –
Nc1nn(-c2ccccc2)nc1C(=O)OCc1c(F)cccc1Cl | inconclusive: 31.6 µM [inhibitor, partial curve, poor fit] | –
COCC1CN(C2CCC2)CC12CCN(C(=O)COc1ccccc1)CC2 (stereo not given) | inconclusive: 10 µM [inhibitor, partial curve] | –
O=C(Nc1ccc2nc3n(c(=O)c2c1)CCCCC3)c1cccc(C(F)(F)F)c1 | inactive | –
CN1c2cc(C(=O)NC3CCCC3)ccc2C(=O)N2CCCCC21 (stereo not given) | inconclusive: 25.1 µM [inhibitor, partial curve, poor fit] | –
Fc1ccc(-c2nc(Nc3ccc(F)c(Cl)c3)nc3c2COc2ccccc2-3)cc1 | inconclusive: 1.58 µM [inhibitor, full curve, poor fit] | –
Cc1cn2nc(C(=O)NCc3ccc4c(c3)OCO4)cc2c(N2CCCC2)n1 | active: 25.1 µM | –
CCOc1ccc(C2CC(=O)n3nc(-c4ccc(C)cc4)nc3S2)cc1OC (stereo not given) | – | inconclusive: -31.6% [inhibitor]
CC(OC(=O)c1ccccc1NS(=O)(=O)c1ccc(F)cc1)C(=O)N1CCCc2ccccc21 (stereo not given) | inactive | –
CC1=C(C(=O)Nc2ccc(C)cc2C)C(c2ccccc2[N+](=O)[O-])n2ncc(C(=O)Nc3ccccc3)c2N1 (stereo not given) | inconclusive: 2.51 µM [inhibitor, partial curve, poor fit] | –
O=C(CSCc1ccccc1)c1ccc[nH]1 | inactive | –
Cc1ccc(CNC(=O)CCCn2c(C)c3cnn(-c4ccccc4)c(=O)c3c2C)cc1 | inactive | –
